Patent publication US20230024528A1, “METHODS OF USE OF ANTI-TREM2 ANTIBODIES” (Alector LLC, priority 2019, published 2023)

Key:
human macrophages [1] = assay: Human macrophage cell viability following CSF1 (M-CSF) withdrawal, CellTiter-Glo; type: cell-based; settings: 10 μg/mL antibody, serum-free RPMI; compared to M-CSF alone (50 ng/mL), IgG1 (10 μg/mL) or antibody at 1 μg/mL; N=3 donors
Source text: To evaluate the ability of an anti-TREM2 agonistic antibody to sustain survival of human macrophages after CSF1 withdrawal, human monocytes were isolated from whole blood using RosetteSep Human Monocyte Enrichment Protocol (Stem Cell Technologies). To prepare human monocyte derived macrophages, monocytes were counted and plated in complete RPMI media (RPMI supplemented with Glutamax, penicillin/streptomycin, non-essential amino acids, sodium-pyruvate, and 10% heat inactivated fetal bovine serum) and 50 ng/ml M-CSF (Peprotech). After 6 days, differentiated monocytes (macrophages) were harvested and plated onto 96-well plates at a density of 1.0×10^3 cells/well in complete RPMI media with M-CSF. Cells were allowed to recover overnight. On Day 7, cell media was replaced with serum-free RPMI media and cells were treated with M-CSF only (50 ng/mL), IgG1 (10 μg/mL), AL2p-58 huIgG1 PSEG (1 μg/mL), or AL2p-58 huIgG1 PSEG (10 μg/mL). Cell viability was quantified using the CellTiter-Glo luminescent viability assay (Promega) on each subsequent day post M-CSF withdrawal.

human macrophages [2] = assay: Human macrophage cell viability and survival following CSF1R inhibition with PLX3397, CellTiter-Glo; type: cell-based
Method: To evaluate the ability of an anti-TREM2 antibody to sustain survival of human macrophages after CSF1R inhibition, the ability of AL2p-58 huIgG1 PSEG to enhance cell-viability and survival in the presence of CSF1R inhibitor PLX3397 was tested (DeNardo et al., Cancer Discov (2011) 1(1):54-67. 22039576t; Peng, et al., J. of Exp Canc Res (2019) 38(1):372. PMID: 31438996). Similar to CSF1 withdrawal experiments, human derived macrophages were plated onto 96-well plates on Day 6 and treated with IgG1, PLX3397 (30 nM), AL2p-58 huIgG1 PSEG (10 μg/mL) or a combination of PLX3397 and AL2p-58 huIgG1 PSEG on Day 7, all in complete RPMI media. Cell viability was quantified using the CellTiter-Glo luminescent viability assay (Promega) on each subsequent day.

CSF1R protein [3] = assay: CSF1R protein expression in brain of non-human primates treated with antibody (Example 3); type: in vivo
Method: Non-human primates were treated with a control IgG or with increasing concentrations of AL2p-58 huIgG1 PSEG antibody. The level of CSF1R protein in samples from the frontal cortex was measured.

CSF1R protein [4] = assay: CSF1R protein levels in frontal cortex and hippocampus after five weekly intravenous doses (Example 4); type: in vivo, cynomolgus monkeys; settings: 48 hours after 5th weekly intravenous dose, versus control-treated animals, N=5 per group
Method: Cynomolgus monkeys were administered weekly doses of control or anti-TREM2 antibody AL2p-58 huIgG1 by intravenous injection for a total of five doses (N=5 per dose group). Forty-eight hours after the 5th dose, brain tissue was harvested and corresponding lysates were analyzed for CSF1R protein expression.

B1: AL2p-58 huIgG1 PSEG: agonist anti-TREM2 antibody, human IgG1 Fc with P331S and E430G; heavy chain SEQ ID NO: 43 or 44, light chain SEQ ID NO: 47 (antibody)
heavy: QVQLVQSGAEVKKPGASVKVSCKASGYAFSSQWMNWVRQAPGQRLEWIGRIYPGGGDTNYAGKFQGRVTITADTSASTAYMELSSLRSEDTAVYYCARLLRNQPGESYAMDYWGQGTLVTVSS[gap - human IgG1 constant region with P331S E430G (EU numbers)]
light: DVVMTQSPDSLAVSLGERATINCRSSQSLVHSNRYTYLHWYQQKPGQSPKLLIYKVSNRFSGVPDRFSGSGSGTDFTLKISRVEAEDVGVYYCSQSTRVPYTFGQGTKLEIKRTVAAPSVFIFPPSDEQLKSGTASVVCLLNNFYPREAKVQWKVDNALQSGNSQESVTEQDSKDSTYSLSSTLTLSKADYEKHKVYACEVTHQGLSSPVTKSFNRGEC
Q: What does the source list for B1?
A: cell viability (fold change) following withdrawal of M-CSF (human macrophages [1]): significantly increased cell viability; cell viability of PLX3397-treated cells also treated with antibody (human macrophages [2]; PLX3397 30 nM + antibody 10 μg/mL, versus PLX3397 alone): significant improvement in cell viability; survival of human macrophages in the presence of CSF1R inhibition (human macrophages [2]; antibody 10 μg/mL with PLX3397 30 nM, complete RPMI media): sustained survival of human macrophages; CSF1R levels in the frontal cortex at the highest antibody concentration (CSF1R protein [3]; highest concentration, 12.5× higher than the lowest, versus control, student's t-test): an increase in CSFR1 levels that was statistically significant compared to control; CSF1R in the hippocampus (CSF1R protein [3]; hippocampus, in a comparable study): increased CSFR1 in the hippocampus was observed but not consistently; CSF1R protein expression in the frontal cortex (CSF1R protein [3]; increasing concentrations of antibody, compared to control IgG): increased CSF1R protein expression

B2: AL2p-58 huIgG1: variant of anti-TREM2 antibody AL2p-58 huIgG1 PSEG having an Fc comprising wild-type IgG1 (antibody)
heavy: QVQLVQSGAEVKKPGASVKVSCKASGYAFSSQWMNWVRQAPGQRLEWIGRIYPGGGDTNYAGKFQGRVTITADTSASTAYMELSSLRSEDTAVYYCARLLRNQPGESYAMDYWGQGTLVTVSS[gap - human IgG1 constant region]
light: DVVMTQSPDSLAVSLGERATINCRSSQSLVHSNRYTYLHWYQQKPGQSPKLLIYKVSNRFSGVPDRFSGSGSGTDFTLKISRVEAEDVGVYYCSQSTRVPYTFGQGTKLEIKRTVAAPSVFIFPPSDEQLKSGTASVVCLLNNFYPREAKVQWKVDNALQSGNSQESVTEQDSKDSTYSLSSTLTLSKADYEKHKVYACEVTHQGLSSPVTKSFNRGEC
Q: Which “CSF1R protein levels in the frontal cortex” value (CSF1R protein [4]) does the source give for B2 here?
A: Its value is “significantly increased”.

Q: What about the “CSF1R protein levels in the hippocampus” value (CSF1R protein [4]) of the same molecule?
A: The value was “significantly increased”.
